# Experimental data reported in the supplement of paper PMC3334620.
# Whole data set: some 33,000 sequences, median “E-score (-0.5 to 0.5)” near -0.036, cut for the highest 2% near 0.37. This is one part of the list.
# Target: T1, Yer064c (UniProt P40041)
# T1 sequence: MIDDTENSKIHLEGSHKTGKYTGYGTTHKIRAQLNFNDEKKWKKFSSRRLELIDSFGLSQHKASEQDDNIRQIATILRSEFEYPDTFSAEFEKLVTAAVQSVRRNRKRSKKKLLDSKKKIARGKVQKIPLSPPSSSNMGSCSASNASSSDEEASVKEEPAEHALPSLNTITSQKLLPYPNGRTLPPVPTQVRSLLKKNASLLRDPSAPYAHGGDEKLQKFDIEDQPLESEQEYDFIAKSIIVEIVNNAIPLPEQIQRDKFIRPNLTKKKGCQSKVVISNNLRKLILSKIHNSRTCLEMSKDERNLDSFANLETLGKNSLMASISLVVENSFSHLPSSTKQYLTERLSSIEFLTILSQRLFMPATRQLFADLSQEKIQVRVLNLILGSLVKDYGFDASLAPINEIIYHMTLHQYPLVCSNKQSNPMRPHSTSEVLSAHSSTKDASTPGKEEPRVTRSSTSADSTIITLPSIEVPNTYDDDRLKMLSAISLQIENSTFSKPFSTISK
# Assay: PBM E-score (8-mer binding enrichment) (E-score (-0.5 to 0.5)); higher = stronger / more preferred TF binding; most listed sequences are background and not binding sites
# Conditions: protein concentration: 200 nM; construct: GST-full length
# Outline: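 Masliner-normalised scans of fluorescent anti-GST signal were the basis for scoring. That signal came from GST-tagged yeast transcription factors applied at about 100-200 nM to double-stranded universal all-10-mer Agilent arrays on fresh or once-stripped slides. Each ungapped eight-base word, pooled with its reverse complement, received an E-score from the Universal PBM Analysis Suite.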
row,Sequence,PBM E-score
1,GATTACAA,0.258
2,GGGACAGA,0.0714
3,ATTGGTCG,-0.166
4,TCAAGCGA,0.118
5,CGCGACGC,-0.154
6,CGTACTCA,0.335
7,CCGGCGCA,-0.0981
8,CAAGACAC,-0.00685
9,CTTGCAAG,-0.0521
10,ATAGCGTA,-0.0811
11,CTGACGAC,0.229
12,ATATGTTA,-0.258
13,TACCCTGA,0.146
14,ACAGCATC,-0.0879
15,AATGAGGA,-0.00162
16,CCAATAGC,-0.252
17,CTGGACAG,0.0136
18,CACACCTC,-0.0423
19,ACGTTCCC,-0.338
20,ATTAATTG,0.238
21,AACTTGTG,-0.0303
22,AGAATCTA,0.0859
23,CGTCCAAA,0.0317
24,ATGGGAAG,-0.195
25,AAACGATA,0.157

row,Sequence,PBM E-score
1,ATTTTAGG,-0.0322
2,AGAGTGAG,0.129
3,CACCGACA,-0.0748
4,AAAAGTAG,0.0768
5,CGGAGGAC,-0.0531
6,AACGGGTA,0.105
7,ACTTGTCA,-0.0746
8,AGCAAGAC,-0.0037
9,GTGCCCGA,-0.0755
10,AAGTACTG,0.202
11,ACACGCCG,-0.0377
12,AAACACAA,0.0917
13,ACATCCCG,-0.109
14,CTTGCGTA,0.0895
15,AGACGCGA,0.0337
16,AGATCGCG,0.076
17,GCAGAAAC,-0.0754
18,AAGTTACG,-0.0147
19,GACACGCA,-0.104
20,ACTAAAAG,0.245
21,GCTAGATA,-0.0249
22,AAGCTGAG,0.144
23,TATAGTCA,0.467
24,GTATGGTA,0.0984
25,CCAGACTC,0.206

row,Sequence,PBM E-score
1,CTAAGAGA,0.0493
2,CCCCTAGG,-0.073
3,CGAGAACC,0.0116
4,GACAGTAC,0.0542
5,GAGAGCAC,-0.0429
6,CTTAGTTC,0.0883
7,ACCGTTCT,-0.152
8,GAATCTAC,0.0943
9,GAGTGCAA,0.06
10,AAGACGGC,-0.291
11,TCAAAGGA,0.153
12,ATGTTATG,0.0503
13,CGCAATGC,-0.205
14,ACCACAGT,0.0774
15,GTAGATAC,-0.203
16,CACCACTA,0.153
17,CAGGACCC,-0.208
18,CGCAGTGA,0.0233
19,ATTGTAAC,0.0714
20,ACATGACG,-0.00033
21,CCACGAAC,-0.0469
22,GCAGGTCC,-0.318
23,CCAGGACG,-0.259
24,CAAAATTA,0.174
25,CTGCTTCA,-0.138

row,Sequence,PBM E-score
1,CCCCAAGG,-0.213
2,CCAACTGA,0.144
3,AAACATGT,0.0483
4,CGTCATAA,-0.00764
5,GTTGCACA,0.03
6,AAATCCAC,-0.0693
7,AGAGCTTG,-0.121
8,AGCCCGTA,-0.389
9,ACGAAGAA,0.101
10,ATTCACAG,0.078
11,ATGAGAGG,-0.0459
12,AACGTTTA,-0.183
13,GCCACTCC,-0.128
14,GTACGATA,0.0242
15,ACGGAATA,0.102
16,ACGCCGGA,-0.227
17,AAACACCC,-0.0882
18,CCCGTCGC,-0.0794
19,ACTGCTAG,0.0957
20,AGACTTTG,0.0959
21,AGGGGGGG,-0.404
22,CCAAGGAA,-0.224
23,AATTTTGA,0.149
24,GATCAGTA,0.201
25,AAAGTGTC,-0.238

row,Sequence,PBM E-score
1,ACTATGGA,0.184
2,GATAAAAA,0.135
3,CCCGTCGA,-0.0116
4,AGGCAAGC,-0.37
5,ATATACTG,0.0631
6,ATTTTTTC,0.0658
7,CGAGATTC,0.0578
8,CATGATAC,0.144
9,CGTCCCTA,-0.243
10,CTGGCTGC,-0.261
11,CCTGGTCG,-0.0752
12,CCAAGTAG,-0.0719
13,GGACAGCA,0.0107
14,GAGACCCC,-0.159
15,ATTTCCTG,0.0946
16,CTTTTGCC,-0.142
17,CGAATGAA,-0.121
18,AAATCTGC,-0.0261
19,GCTCGCCC,-0.0827
20,ATTGACAC,0.0304
21,CGGAAGGA,-0.0792
22,ACTGATAC,-0.00937
23,ATGGTTCA,0.341
24,GATAACTA,0.0463
25,CTAGCATA,0.0257

row,Sequence,PBM E-score
1,CTGAGCGC,-0.195
2,AAGGAGTC,0.412
3,AACCCGTA,-0.125
4,AAATGGTA,-0.0673
5,CTTGATCC,0.0127
6,AAAATGCC,-0.219
7,CCTTAGAA,0.00114
8,GTTCACAA,0.0949
9,GCTGAGAC,0.255
10,GATGCAAA,-0.235
11,GCTAATGA,0.101
12,AGGCCTAT,-0.191
13,CGAGCTAA,-0.211
14,GCTGGAGA,-0.291
15,AACATCCT,-0.0435
16,GATGCCGA,-0.0727
17,GGCGTGAC,0.153
18,GTATAACA,-0.0202
19,ACACTTGC,0.0323
20,GCCGGGTA,-0.0861
21,AGACGGCT,-0.0763
22,CGTCCGGC,-0.238
23,AAACCGGT,-0.156
24,CCGGTTCA,-0.213
25,GAGGTCAA,-0.00997

row,Sequence,PBM E-score
1,GCGGTCCA,-0.257
2,AGCGTAGG,-0.178
3,GAAGAGGC,-0.256
4,ATCCAACC,-0.134
5,CATCTAGA,0.0209
6,ACTTTTAG,0.109
7,TGTTAACA,0.0752
8,ACGTGTCG,-0.087
9,GATTCGGA,0.11
10,TCCCTCAA,-0.156
11,GCTAGGAC,0.133
12,CCTACCCA,-0.0884
13,GGATATAA,0.0494
14,ATGGTCGC,-0.226
15,CATTGGCC,-0.151
16,ATACTCAG,0.214
17,AGAGACCT,-0.0554
18,CCATGATA,-0.117
19,GTGCACCA,-0.178
20,ACATAAGC,0.051
21,GACTCTCA,0.418
22,ACACACAT,0.26
